Assay results published in ChEMBL document CHEMBL4888484, “Replenishing the malaria drug discovery pipeline: Screening and hit evaluation of the MMV Hit Generation Library 1 (HGL1) against asexual blood stage Plasmodium falciparum ,using a nano luciferase reporter read-out” (2022).
Out of some 150,000 compounds screened, about 540 (0.36%) showed an effect of 50% or more. The list shows a part of the results.

test system: Plasmodium falciparum; test: Primary screen in NF54 nanoGlo assay, in single point, at 2uM, 72h; a lower Z score goes with more inhibition; type: functional, Erythrocyte; conditions: timepoint 72 hour

Row | SMILES | % Inhibition | Z score
1 | O=S(=O)(CCC1CCCCC1)N1CC2CCC(O)CC2C1 (stereo not drawn) | -16% | 1.81
2 | COC(=O)C1=C(C(=O)OC)SC(=C2C(=S)C(C)(C)Nc3cc(C)c(C)cc32)S1 | -7% | 0.82
3 | Cn1nc(-c2cccc3cnccc23)nc1N1CCOCC1 | -1% | 0.16
4 | Cn1cc(CN[C@H]2[C@H](O)[C@H](O)C[C@@H]2c2cccnc2)c2ccccc21 | 28% | -3.2
5 | CCc1noc(CCNc2ncnc3[nH]ccc23)n1 | -4% | 0.57
6 | CC(C)Cn1c(Cn2cccn2)nc2cc(NC(=O)COc3ccccc3Cl)ccc21 | 10% | -1.55
7 | Cc1ccc(C(C)(C)CN(C)Cn2ncsc2=S)cc1 | -16% | 2.47
8 | COc1ccc(-c2cc(C)c(C)nc2O)cc1F | -3% | 0.47
9 | CCOCCC1(CNC(=O)[C@@H]2CCC(=O)N2)CCCC1 | 2% | -0.17
10 | O=C(Nc1cccc2c1OCO2)N1CCC[C@H](c2nc(=O)[nH][nH]2)C1 | 7% | -1.28
11 | Cc1cc(C)n2ncc(-c3noc([C@H]4C[C@@H]4c4c[nH]cn4)n3)c2n1 | -18% | 3.6
12 | Cc1cnc(NC(=O)c2cc(O)ncn2)s1 | -4% | 0.71
13 | CCC(c1ccccc1)C1CCCN1CC(=O)NC1CC1 (stereo not drawn) | -12% | 1.89
14 | Cc1ccc(C)c(S(=O)(=O)NCC(=O)NC(C)(C)C)c1 | -3% | 0.53
15 | O=C(c1[nH]nc(C2CC2)c1Br)N(C1CCCCC1)C1CC1 | -2% | 0.24
16 | CCO[C@H]1CCOC2(CCN(C(=O)Nc3cccc(C)c3)CC2)C1 | -5% | 0.87
17 | Cc1ccc(C)c(CN2CC[C@H](N3CCN(Cc4nc(C)no4)C3=O)C2)c1 | -3% | 0.63
18 | COc1ccc(CNC(=O)CCS(=O)(=O)c2cc(-c3cc(C)no3)ccc2OC)cc1 | -1% | 0.11
19 | O=C(CC1CCCCC1)N1CCC[C@H]1C1CCNCC1 | -1% | 0.19
20 | O=C(NCCc1ccccc1)N[C@H]1C[C@H]2OCC[C@@H]12 | -2% | 0.29
21 | O=C(CN1CCC[C@H]1c1cccs1)Nc1cccc(S(=O)(=O)N2CCCC2)c1 | 1% | -0.12
22 | CCCc1cc(CN(C)C(=O)Nc2cccc(-c3csc(C)n3)c2)n[nH]1 | -1% | 0.14
23 | CC1(C)C[C@@H]1C(=O)NCC1CCN(S(N)(=O)=O)CC1 | -14% | 1.53
24 | Cc1ccc(NS(=O)(=O)c2cc(-c3ccno3)sc2C)c(Cl)c1 | 2% | -0.23
